Results reported in PMC12040169 (PLOS Biology, 2025).
Some of the results follow.

What follows are compounds tested on T1, C. trachomatis L2/434/Bu expressing GFP (CTL2-GFP). Conditions: total inclusion area; 28.5 h, 10 µM; inhibitor.
T1 construct: L2/434/Bu GFP intracellular growth in HeLa cells
Parameters: species or system HeLa; C. trachomatis total inclusion area by high-content imaging, normalised to DMSO
Outline: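 Post-fluorescence-read fixation, DNA staining with Hoechst and high-content imaging; GFP inclusion area and number per well, and nuclei counts, used as proxies for bacterial growth and host viability.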

Compound	% of control remaining
N/C(=N\OC(=O)COc1cccc2ccccc12)c1ccc(Cl)cc1 [CBK263004]	81.5151
O=C(CCN1CCOCC1)Nc1ccc(Cl)cc1 [CBK263820]	23.8042
CCOC(=O)C1C2CCC3(CC(=O)c4cc(Cl)ccc4O3)C21 (stereo not drawn) [CBK284858]	89.2323
CC(=O)NC1(c2ccccc2)CCN(CC(O)c2ccccc2)CC1 (stereo not drawn) [CBK284819]	87.7891
CSc1cccc(-c2cnccc2-n2ccnc2)c1 [CBK177155]	92.1522
CC(C)(C)c1ccc(Oc2ccc(NC(=O)CCCC(=O)O)cc2)cc1 [CBK264339]	102.639
COc1ccccc1C(=O)Nc1sc2c(c1C(=O)NCc1ccco1)CCCC2 [CBK265105]	123.564
Cc1ccc(Cc2cnc(NC(=O)C3CNC(=O)N3)s2)cc1F (stereo not drawn) [CBK305919]	44.8293
Cc1c(C(=O)N(C)CC(F)(F)F)nnn1-c1ccc(F)cc1 [CBK282214]	97.7548
CCCCn1c(NCc2nc3ccccc3n2C)nc2ccccc21 [CBK264177]	111.589
CC(=O)Nc1ccccc1NC(=O)C(C)Oc1ccc(Cl)cc1Cl (stereo not drawn) [CBK263954]	88.887
C#CCNC(=O)CC[C@H]1CNC(=O)[C@@H]2[C@@H](CCN2Cc2ccc(O)cc2)N1C [CBK289017]	125.263
CCc1nc2ccc(C(=O)N3CCNC(=O)C3)cn2c1N(CCC(C)C)CCN(C)C [CBK146255]	97.0645
Cc1ccc(NC(=O)Cn2cnc3c(-c4ccccc4)csc3c2=O)cc1 [CBK287812]	91.1696
O=S(=O)(c1ccc(F)cc1)c1nc(-c2cccs2)oc1N1CCN(Cc2ccccc2)CC1 [CBK267672]	95.7932
O=C(O)Cc1nnc(CNc2ccc(Cl)cc2)[nH]1 [CBK286651]	47.7631
COCCN1CCCC(NS(=O)(=O)c2cccc(C(C)=O)c2)C1 (stereo not drawn) [CBK305290]	72.2774
COc1ccccc1CCCNC(=O)c1ccc(=O)n(C)c1 [CBK282636]	107.348
Cc1ccc(C)c(C(=O)C2=C(O)C(=O)N(CCCN3CCOCC3)C2c2cccc([N+](=O)[O-])c2)c1 (stereo not drawn) [CBK265503]	68.1564
CCCn1c(SC(C)C(=O)Nc2ccc(S(=O)(=O)NC(C)C)cc2)n[nH]c1=O (stereo not drawn) [CBK295169]	80.1776
CCn1nc(CC(C)C)cc1C(=O)NCCc1cn2cccnc2n1 [CBK306553]	90.7055
C[C@@H]1C(=O)O[C@H]2[C@H]1CC[C@@]1(C)Cc3sc(NC(=O)CCC(=O)O)nc3[C@@H](C)[C@H]21 [CBK289429]	114.541
CC(C)(C)c1ccc(NC(=O)N(CCN)Cc2c[nH]c(-c3ccccc3)n2)cc1 [CBK046297C]	10.1708
Cc1oc2cc(OCC(=O)NCC(=O)O)ccc2c(=O)c1-c1ccc(Cl)cc1 [CBK286697]	69.6365
Cc1cc(C)n(C(CC(=O)N2CCCCC2)C(=O)O)n1 (stereo not drawn) [CBK286806]	103.62
CC1=NN(c2nc(-c3cccc([N+](=O)[O-])c3)cs2)C(=O)C1/N=N/c1ccc(S(N)(=O)=O)cc1 (stereo not drawn) [CBK262434]	110.021

Compound	% of control remaining
Cc1ccc2c(c1)OC(C)(C)CC2NS(C)(=O)=O (stereo not drawn) [CBK307620]	92.411
CCCN1CCC(N2CCN(c3ccc([N+](=O)[O-])cc3)CC2)CC1 [CBK018459]	80.6282
CN(C)CCCNC(=O)c1ccc(/C=N/O)[n+](C)c1 [CBK278284I]	119.92
COc1cc(CN2CCC3(CC2)CN(CC(N)=O)c2ccccc23)cc(OC)c1OC [CBK126774]	89.3751
COCCNc1nc(-c2cncc(OC)c2)cnc1N [CBK063606]	94.1685
N#CCCCN1CCC(Oc2nccnc2OCC2COc3ccccc3O2)CC1 (stereo not drawn) [CBK082994T]	87.1408
Oc1ccc(/C=C/c2nc(-c3ccccc3O)n(-c3ccccc3)n2)cc1 [CBK265289]	93.4548
O=C1CC(c2ccco2)Cc2c1cnn2-c1nc2ccccc2s1 (stereo not drawn) [CBK269292]	111.452
O=C(NCc1ccccc1)c1ccc(NC(=O)c2cc(-n3cnnc3)ccc2Cl)cc1 [CBK267896]	88.9704
O=C(O)C[C@@H]1CCN(C(=O)c2ccco2)C[C@@H]1CC1=NCCc2cc(F)ccc21 [CBK289166]	113.737
CCCn1c(C)cc2cc(NC(=O)Cn3cc(C)nn3)ccc21 [CBK281548]	86.7036
CN1CCN(c2ccc(-c3ccc(Cl)cc3)cn2)CC1 [CBK036945]	79.8107
Cl.Nc1ncc([C@@H]2O[C@H](CO)[C@H](O)C2O)c(=O)[nH]1 (stereo partly drawn) [CBK201205]	100.583
CC(C)Nc1nc2ccccc2nc1SCCN(C)C [CBK103672]	72.432
CCc1nn(CC(=O)N(C)C)c(=O)c2cc3sc(C)cc3n12 [CBK284102]	72.3931
CC(=O)N1CCC[C@H]2NC(=O)CNC(=O)C3(C/C=C/C[C@H]21)CCN(CC1CCC1)CC3 [CBK292129]	135.247
O=C(O)C1C2CCC(O2)C1C(=O)Nc1ccc2c(c1)OCCO2 (stereo not drawn) [CBK263677]	96.3304
COc1ccc(S(=O)(=O)NCCNC(=O)c2cc(-c3cccnc3)cnc2NCc2ccc3c(c2)OCO3)cc1 [CBK076379]	98.0052
C1=CC2CC1CC2CN1CCN(Cc2cccnc2)CC1 (stereo not drawn) [CBK027284]	108.329
CCOC(=O)c1c(C)nc2ccccc2c1O [CBK153666]	88.0859
Cc1ccc(N2CCN(C3=NC(=O)/C(=C\c4ccc(O)c([N+](=O)[O-])c4)S3)CC2)cc1 [CBK264347]	120.366
C#CCOC(=O)Nc1cnc(N2CCOCC2)c(C(F)(F)F)c1 [CBK019679]	58.1796
COc1cc(Nc2cc(-c3ccco3)ncn2)cc(OC)c1OC [CBK090706]	95.005
CC(Nc1nc(-c2ccc([N+](=O)[O-])cc2)nc2ccccc12)c1ccccc1 (stereo not drawn) [CBK264767]	113.795
O=C(CN1C(=O)[C@@H]2CCCN2c2ncccc21)NC(c1ccccc1)c1ccccc1 [CBK286205]	116.88
O=C(Cc1cc(Cl)ccc1C(F)(F)F)NCCc1c[nH]c2ccc(Cl)cc12 [CBK159759]	65.4161

Compound	% of control remaining
CCOC(=O)C(=O)N(C)c1c(CC)nc2c(OCc3ccccc3)cccn12 [CBK147879]	105.623
C=CCN(C)C(=O)[C@H]1C[C@@H](O)[C@H](O)[C@@H]2N=C(Nc3ccc(OC)cc3)S[C@@H]21 [CBK288947]	105.273
O=C(CSc1ccc(Cl)cc1)Nc1cccc(-c2nc3ncccc3o2)c1 [CBK264989]	99.5525
O=C(Cn1c(-c2cncs2)nc2ccccc21)Nc1ccc(C(=O)N2CCCCC2)cc1 [CBK269439]	102.444
Cc1cccc(Cl)c1OCC(O)CNCCc1ccccc1 (stereo not drawn) [CBK003076]	1.408
O=C(c1cccnc1)N1CCN(S(=O)(=O)c2ccc(F)cc2)CC1 [CBK264210]	104.164
COc1ccccc1Cc1cccc(C2CCN(C(=O)c3ccccc3)CC2)n1 [CBK286236]	97.9719
O=C(Nc1ccc(Cl)cc1)Nc1cccc(C(=O)O)c1 [CBK269404]	66.8155
O=C(C1CC1)N1CC2CN(Cc3ccccc3)CC2C12CCOCC2 (stereo not drawn) [CBK283055]	96.924
CC(=O)Nc1ccc(Nc2cc(-c3ccc(Cl)cc3)ncn2)cc1 [CBK090720]	97.4345
Cc1cccc(-c2ncc(NC(=O)CCOc3ccccc3)nc2-c2ccc(N)cc2)c1 [CBK036655]	85.128
Oc1c(-c2cccc(C(F)(F)F)c2)cnc2cccnc12 [CBK081290]	88.3877
Cc1csc(-c2cnc(N3CCOCC3)c3nccn23)c1 [CBK091287]	126.271
CN(C)CCCNC(=O)C1CCCN(c2nc3c(-c4ccccc4)csc3c(=O)[nH]2)C1 (stereo not drawn) [CBK215504]	117.997
COc1cccc2cc(C(=O)NCc3c(F)cccc3F)oc12 [CBK149794]	77.6599
Cc1ccc(S(=O)(=O)N2CCOCC2)cc1-c1cnc(N)c(-c2ccc(O)cc2)n1 [CBK122519]	68.9833
O=C(NCCc1ccc(O)cc1)c1ccc2nc[nH]c2c1 [CBK153323]	83.3453
Cc1nn(C)cc1-c1cncn1Cc1cccc(OC(C)C)c1 [CBK281484]	91.6592
Cc1ccc(C(=O)NCc2cccnc2N(C)C2CCCCC2)cn1 [CBK306514]	128.029
Cn1cncc1CN(Cc1ccccn1)Cc1ccccc1Cl [CBK282129]	89.0957
CCC(CC)C(=O)N(C)c1c(C)nc2ccc(C(=O)NCCc3c[nH]c4ccccc34)cn12 [CBK146495]	123.315
COc1ccc(-c2c(-c3ccc(OCc4cnn(-c5ccccc5)c4)c(C)c3O)n[nH]c2C)cc1 [CBK265006]	93.1013
Brc1cccc(NN=C2CCCC2)n1 [CBK006748]	74.8968
Cc1nc(CC(=O)Nc2ccc(N3CCOCC3)cn2)cs1 [CBK305251]	111.266
CN(C)c1ccc(CNC(=O)Cn2nc(C(=O)O)c3ccccc3c2=O)cc1 [CBK295330]	103.9
COCCn1cnnc1CN(C)C(=O)NC(C)c1nc2ccccc2[nH]1 (stereo not drawn) [CBK307155]	64.2662
